Results: ChEMBL document CHEMBL4888484, “Replenishing the malaria drug discovery pipeline: Screening and hit evaluation of the MMV Hit Generation Library 1 (HGL1) against asexual blood stage Plasmodium falciparum ,using a nano luciferase reporter read-out” (2022)
Out of some 150,000 compounds screened, about 540 (0.36%) showed an effect of 50% or more. The list shows a part of the results.

These molecules were tested on Plasmodium falciparum (assay: Primary screen in NF54 nanoGlo assay, in single point, at 2uM, 72h; a lower Z score goes with more inhibition). Conditions: timepoint 72 hour.
Format: functional, Erythrocyte
For `Cc1nc(N2CC(C)(C#N)C2)c2cnn(-c3cccc(F)c3)c2n1`, the “% Inhibition” value was -8% and the Z score was 0.89.
`CN(Cc1cnn(C)c1)Cc1nc2cc(C(F)(F)F)ccc2o1` was tested, and the “% Inhibition” value was 0% and the Z score was 0.06.
With `CNS(=O)(=O)CCN1CCC(F)(F)C1` the “% Inhibition” value was 4% and the Z score was -0.81.
For `O=C(c1cccnc1O)N1CCC(c2nccn2CC2CC2)CC1`, the “% Inhibition” value was -4% and the Z score was 0.53.
For `COc1ccc(/C=C/C2C(S(=O)(=O)NCCCN3CCCC3=O)CON2C)cc1` (configuration not stated), the “% Inhibition” value was -1% and the Z score was 0.19.
With `CCc1nnsc1C(=O)N[C@@H](C)c1nc(C)no1` the “% Inhibition” value was -15% and the Z score was 2.23.
`Cc1noc(C)c1CS(=O)(=O)CC(=O)N1CCC[C@H](C)C1` was tested, and the “% Inhibition” value was -6% and the Z score was 0.72.
With `O=C(Nc1cccnc1)[C@H]1CC12CCCCC2` the “% Inhibition” value was -7% and the Z score was 1.03.
For `O=C1c2cc(NS(=O)(=O)c3cccnc3)ccc2OCC[C@@H]2CCCCN12`, the “% Inhibition” value was -1% and the Z score was 0.17.
`CCn1ncc(NC(=O)NC[C@@]2(C)CCCCO2)c1C(F)(F)F` was tested, and the “% Inhibition” value was -21% and the Z score was 4.08.
In the case of `Cc1ccc(C)c([C@H](C)N(C)C(=O)Cn2ncn(C)c2=O)c1`, the “% Inhibition” value is reported as 8% and the Z score is reported as -0.97.
`COCCn1c(-c2ccc(C)o2)nnc1N1CCC(OC)CC1` was tested, and the “% Inhibition” value was 0% and the Z score was 0.05.
`O=C1[C@@H]2Cc3c([nH]c4ccccc34)C(c3ccc(Cl)cc3)N2C(=O)CN1CCO` (some centres not stated) was tested, and the “% Inhibition” value was -7% and the Z score was 1.11.
With `CCOc1cc(NCc2ncccc2F)ncn1` the “% Inhibition” value was 4% and the Z score was -0.37.
With `Cc1ccccc1C(=O)NCC(=O)N[C@H]1CCCOC1` the “% Inhibition” value was -2% and the Z score was 0.3.
`O=C(O)c1cccc(CN2CCC[C@H](S(=O)(=O)Nc3ccccc3)C2)c1` was tested, and the “% Inhibition” value was -7% and the Z score was 0.72.
For `COCCCC(=O)NCc1ccc(N(C)C)c(C)c1`, the “% Inhibition” value was -3% and the Z score was 0.44.
With `CC(C)n1cc(C(=O)N2CCC(Nc3nccs3)CC2)cn1` the “% Inhibition” value was 4% and the Z score was -0.47.
`CCc1nc(CN2CCC3(CCCCCC3)C2)n[nH]1` was tested, and the “% Inhibition” value was -9% and the Z score was 1.2.
`CC(C)c1nnc(CN[C@H](c2ccccc2)C2(CO)CCCC2)o1` was tested, and the “% Inhibition” value was -20% and the Z score was 3.84.
In the case of `CC(C)CC(=O)N(Cc1nccn1Cc1ccc(Cl)cc1Cl)CC1CC1`, the “% Inhibition” value is reported as -8% and the Z score is reported as 0.76.
In the case of `CC(=O)c1c(C)nc(C(Cl)(Cl)Cl)nc1N`, the “% Inhibition” value is reported as -15% and the Z score is reported as 1.98.
For `CC(C)(C)C1CCC(OC[C@@H](O)CN2CCCCC2)CC1` (some centres not stated), the “% Inhibition” value was -1% and the Z score was 0.14.
`CCn1c(-c2ccccc2F)nc2cc(C(=O)NCCc3ccccn3)cc(NC(C)=O)c21` was tested, and the “% Inhibition” value was 1% and the Z score was -0.23.
For `CCc1nc(-c2ccc(C(=O)NCC(=O)N3CCN(c4ccccc4)CC3)cc2)no1`, the “% Inhibition” value was 1% and the Z score was -0.25.
`CC(=O)N1CCC(CCOc2ccccc2)CC1` was tested, and the “% Inhibition” value was -12% and the Z score was 2.27.
In the case of `CCOC(=O)c1sc(N(C)C[C@H](O)COC)nc1C`, the “% Inhibition” value is reported as -14% and the Z score is reported as 1.15.
With `O=C(CC1CCCC1)NCc1cccnc1-c1ccsc1` the “% Inhibition” value was -6% and the Z score was 0.93.
With `CN(Cc1cnn(-c2ccccc2)c1)c1cc(CCN)ncn1` the “% Inhibition” value was -11% and the Z score was 1.67.
With `O=C(CCn1nc2ccccn2c1=O)OCc1nc(-c2ccncc2)no1` the “% Inhibition” value was 25% and the Z score was -2.79.
`Cc1cc(N2CCC[C@@]3(CCC(=O)N(Cc4cccnc4)C3)C2)nc(N)n1` was tested, and the “% Inhibition” value was 3% and the Z score was -0.6.
In the case of `Cc1ccc(O[C@H]2COCC[C@H]2NC2Cc3ccccc3C2)cn1`, the “% Inhibition” value is reported as -3% and the Z score is reported as 0.52.
In the case of `c1ccc(CN2CCC(Nc3cnc4c(c3)COCC4)CC2)cc1`, the “% Inhibition” value is reported as -7% and the Z score is reported as 1.31.
With `COc1cccc(CN2C(=O)CCCC[C@H]2C(=O)N2CCCCC2)c1` the “% Inhibition” value was -10% and the Z score was 1.17.
With `CC(C)CNC(=O)N1CCC2(CC1)C[C@@H](N(C)Cc1ccccc1)CCO2` the “% Inhibition” value was -2% and the Z score was 0.3.
`CC[C@H](C)[C@H](N)C(=O)N1CCC2(C1)OCCO2` was tested, and the “% Inhibition” value was -8% and the Z score was 0.97.
With `O=C(Nc1nnc(C2CC2)s1)c1ccccc1OCc1ccccc1` the “% Inhibition” value was -5% and the Z score was 0.58.
`O=C1CCCN1c1ccc(-c2nc(C3CC3)n[nH]2)cc1` was tested, and the “% Inhibition” value was 1% and the Z score was -0.08.
In the case of `CC(C)CCN(C(=O)[C@@H](C)Cn1cncn1)C1CC1`, the “% Inhibition” value is reported as -7% and the Z score is reported as 0.7.
`CCc1ccccc1C(=O)N1CC[C@H](N(C)C)[C@H](CCCO)C1` was tested, and the “% Inhibition” value was -6% and the Z score was 0.84.
`O=C(NC1CCCCC1)N1CC[C@@H]2COC(=O)N(Cc3ccccc3)[C@@H]2C1` was tested, and the “% Inhibition” value was -3% and the Z score was 0.52.
In the case of `Cc1nc(Cn2nnc(NS(=O)(=O)c3ccc(F)cc3)c2C)no1`, the “% Inhibition” value is reported as -7% and the Z score is reported as 0.72.
`C[C@H]1C[C@@H](C(F)F)n2ncc(C(=O)N3CCO[C@H]4CCC[C@H]43)c2N1` was tested, and the “% Inhibition” value was -3% and the Z score was 0.41.
`O=C(Nc1nnc(-c2cc3ccccc3o2)s1)NC1(CO)CCCC1` was tested, and the “% Inhibition” value was -14% and the Z score was 2.71.
In the case of `COc1cc(NC2CCN([C@@H](C)C(=O)N(C(C)C)C(C)C)CC2)cc(OC)c1`, the “% Inhibition” value is reported as 1% and the Z score is reported as -0.2.
For `Cc1nc(C)c(CC(=O)NCCc2ccc(Cl)cc2)s1`, the “% Inhibition” value was 1% and the Z score was -0.1.
`COc1cccn(CC[C@H]2CCCCN2C)c1=O` was tested, and the “% Inhibition” value was -8% and the Z score was 1.52.
`O=C(Nc1nc(CN2CCCCCC2)cs1)c1ccc(Br)cc1F` was tested, and the “% Inhibition” value was -11% and the Z score was 1.
For `CCC[C@]1(COC)CCCN1C(=O)Nc1ncsc1C(C)C`, the “% Inhibition” value was -35% and the Z score was 4.14.
For `Cc1noc(C)c1NC(=O)[C@@H]1CCCc2ccccc21`, the “% Inhibition” value was 2% and the Z score was -0.36.
With `O=C(OCCF)N(Cc1cncs1)Cc1cncs1` the “% Inhibition” value was -3% and the Z score was 0.52.
For `Cc1cc(=O)n2c3c(cc(S(=O)(=O)NCc4ccc(C(=O)O)cc4)cc13)CC2`, the “% Inhibition” value was 0% and the Z score was 0.07.
`O=C(Nc1ccc(CCN2CCC(O)CC2)cc1)c1ccsc1` was tested, and the “% Inhibition” value was -4% and the Z score was 0.73.
For `C#CCCC1(CCC(=O)Nc2ccc3nccn3c2)N=N1`, the “% Inhibition” value was -7% and the Z score was 0.81.
For `COc1ccc(CNC(=O)Cn2ccc3ccccc3c2=O)cc1`, the “% Inhibition” value was 0% and the Z score was -0.04.
In the case of `CC(C)(C)c1cn(C[C@H]2CCCN(C(=O)NC3CCCCCC3)C2)nn1`, the “% Inhibition” value is reported as -20% and the Z score is reported as 3.68.
